Test results: the supplement of paper PMC3334620
Over roughly 33,000 sequences, “E-score (-0.5 to 0.5)” has its median near -0.054; the highest 2% begin near 0.39. Some of the results follow.

These sequences were tested against Ylr278c (UniProt Q05854) (assay: PBM E-score (8-mer binding enrichment) (E-score (-0.5 to 0.5)); higher = stronger / more preferred TF binding; most listed sequences are background and not binding sites). Settings: protein concentration: 200 nM; construct: GST-DNA-binding domain.
Summary of the method: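 GST-tagged yeast TFs (full-length or DNA-binding domain) were made by PURExpress in vitro transcription/translation and applied at about 100-200 nM to universal all-10-mer Agilent arrays. The arrays were made double-stranded by primer extension, on fresh or once-stripped slides. Bound protein was detected with fluorescent anti-GST, and scans were normalised with masliner. Each ungapped eight-base word, pooled with its reverse complement, received an E-score (modified Wilcoxon-Mann-Whitney statistic) from the Universal PBM Analysis Suite.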

Sequence	PBM E-score
ATTCCAAT	-0.0304
AAGGCGCG	-0.133
ATGCAATC	-0.0874
ATGGACTA	-0.18
CGTATGAA	0.0155
CTTCTTTA	0.0438
CACACGAA	-0.114
AAACCCGC	0.287
TGGTTACA	-0.27
ATACCTTC	0.0292
ACCAGAAG	-0.321
ACAGACTA	-0.223
CAGGCCGC	-0.0383
GTAAATTA	-0.0254
ACCTTCAG	-0.177
CCGGCTCA	0.317
ATGCCGAG	0.213
ACTGAGAC	-0.221
ATGGCTTC	-0.2
ATTACGCC	-0.015
AAATATCC	0.125
ACGCCGAC	0.343
CGGGTGGA	0.0152
TCGGTTAA	0.258
CTGCGAGC	0.0649

Sequence	PBM E-score
AACCGAAT	0.133
ATCTGTCA	0.0135
CTCGATTC	-0.0393
GCAAGTAA	-0.0728
ATTTCCGG	0.475
GTGTGGCA	-0.109
ATCTTCAG	0.0375
AAATTGGT	0.0898
CACCTTGG	-0.0141
GCAGGCTA	-0.17
ACGTGGGC	-0.0953
CTGCCGGA	0.355
CTACCTAC	0.0201
CACAGGTA	-0.157
AACTACTT	-0.0821
CAAGCGGG	0.186
GGGGTCAC	-0.0137
AGAAATTA	0.0733
AGAGGAGA	-0.262
CAACGAAC	0.0587
CTGCCGGC	0.347
GTGGAACA	0.0188
GAAACAGA	-0.0894
TACCCACA	-0.0145
TCTCCCCA	-0.00356

Sequence	PBM E-score
ATGCCGGA	0.456
GGCCGGTA	0.261
TAAGGGTA	-0.315
CAATAACC	0.0651
ACCCTTCA	-0.132
CCTTATAG	-0.296
TAGATTGA	0.0387
ACTAAGCC	0.0973
CCATATCG	0.199
TCGTGACA	-0.0361
CCCCCGGG	0.296
AGCACGGG	0.066
CATACCTA	-0.117
CAATAGAG	-0.369
ACGTGCCG	0.138
GGAGCAGA	0.109
AGAAGGTC	0.0215
GAGGTGGA	0.0588
GCCGAGGA	0.197
ACCGAAGG	0.0746
AGAAGTAT	0.00141
CGCGTAGA	-0.0365
TACTAAGA	-0.0701
AAGACTGG	-0.191
CGACAGAG	-0.156

Sequence	PBM E-score
CGAGTCCG	0.391
CCTCGTCG	0.139
CAGGGGTC	-0.057
TGGAGCCA	-0.194
AGATAGGC	-0.123
CTGCGGAC	0.221
CTAGTTAA	-0.183
AACTCGGC	0.215
GGGTCCAC	-0.0482
ACTGCAGA	-0.11
ACCACAGC	-0.145
CTGGAAAA	-0.00229
CTTCAGGA	0.0541
AGTCAAAA	-0.0915
CCAGCATA	-0.163
ACACTTCA	-0.0729
CCTGATAG	-0.273
ATCGGTCC	0.325
AGAGCTCG	0.0797
GTCTCGGA	0.385
AGGCTTGC	-0.199
GGCGCGTA	0.0388
GATATTCC	0.293
CCCCCCTA	-0.268
CGCATATA	-0.0195

Sequence	PBM E-score
TATGCACA	-0.2
ACTTTACC	0.0501
TGGGATAA	-0.00947
TCCTAGGA	0.0528
ATGATTCC	0.121
GAGTCGAA	0.0359
CTTGACCC	0.0732
AGATCAGG	-0.213
GTTCTATA	-0.207
CTTCATGC	-0.0885
AGCGTCAC	-0.138
AATGACAT	-0.0594
TAAAGTAA	-0.0915
ACCTCAAG	-0.209
CATTGAAC	0.0511
ACATCGGT	0.16
AAGAGCAA	-0.156
CCCATAGA	-0.292
CGCTAAAA	-0.0348
GTGCGCAC	0.238
ACCGCCAG	0.146
GAAAGTAA	-0.0679
AAGTGACG	-0.128
CACTAGGG	-0.259
GGACACAC	0.149

Sequence	PBM E-score
AGTACAAC	0.075
ACTCAGGG	-0.204
CGAGCGCG	0.236
CCTAGTTC	-0.182
CAATGCGG	0.19
AAGTATAG	-0.157
ACTCGTCG	-0.161
TATTTTCA	-0.0452
AGCTACCT	-0.105
TCTGGGAA	-0.187
ATTGCGAG	0.0736
AATCGACA	-0.0173
GCCACCAA	-0.0527
CACACCAA	-0.0145
ATGTCATA	-0.0919
GTTCTAGA	0.0109
CTGCTCCA	-0.218
AGCTTTTG	-0.174
TCGTCGAA	-0.357
GGTCTCCA	-0.103
GAGTCTTA	-0.189
AATTACGA	0.00325
CCTTGACG	-0.0551
AGAGCGTG	-0.0159
CCATGACC	-0.137

Sequence	PBM E-score
AGCCGCGC	0.2
CACAAGGG	-0.243
AGGTGGCC	-0.0789
AGTGGGAC	-0.0281
ATAAGTAG	-0.0659
ACACAGGT	-0.306
CTTATCTA	-0.0407
ATGCGAAA	-0.0354
CCTTCCAG	-0.185
GGCCCGCA	0.188
AGATGCCA	-0.161
AATGAAGA	-0.09
CGGTATCA	0.132
CCAACGGG	0.114
GACGTCCC	0.0234
AGAACATG	-0.0537
AGGTCGGA	0.372
TGCTTAAA	-0.112
GCCCTTCA	-0.115
CATGTATC	-0.06
TAAACCAA	-0.11
ATTTACTC	0.0166
AGCGTAAT	-0.0833
CGGCTGCC	0.221
AGGATGTG	-0.061

Sequence	PBM E-score
ACGGGCCG	0.127
TCCAGTCA	-0.128
GATTTAGC	0.121
GCATGACA	-0.309
ATAGACAT	-0.311
CTTCGGCC	0.154
GGAGACCC	0.112
GATTGCCA	-0.0242
AACCAAAT	-0.0169
CTGCGTTA	-0.211
ATTATGAG	-0.154
ATCCACAG	-0.118
AGTCTTCA	-0.252
AGTAGGGG	0.0709
AACGAGGC	-0.0577
AAAGTTGT	0.106
GGCTGTGA	-0.285
GAGCAACC	-0.0653
ATTAGACG	-0.0379
ATTGAATA	-0.0355
CGAACGGC	0.134
GGCAGTGA	-0.229
AAAAGTTA	-0.175
ACTTTCGA	-0.00487
GCGTACGC	0.164

Sequence	PBM E-score
AATCGGCA	0.304
CAAAAGAG	-0.23
CTCACTGA	-0.174
GGGCAGAC	-0.105
CACCGGCC	0.273
CGATGGAC	0.0674
AATTCAAC	0.0812
CTCCGGAA	0.479
GACTACGC	-0.0263
ACTATCCG	0.258
ATATTTGG	-0.189
CCTACAGG	-0.0841
TCTTTCCA	0.0294
CCAGCCCG	0.115
ATAACAAG	0.103
AAAGGTAA	-0.122
TATGATCA	-0.202
AGAGGTAA	-0.0365
GATCCGAA	0.33
